Source: paper PMC9911399, “Two distinct binding modes provide the RNA-binding protein RbFox with extraordinary sequence specificity”
Residue numbers refer to the chain shown, from its start. The list shows a part of the results.

T1: RBFOX1 RRM (Homo sapiens, UniProt Q9NWB1 109-208)
T1 sequence: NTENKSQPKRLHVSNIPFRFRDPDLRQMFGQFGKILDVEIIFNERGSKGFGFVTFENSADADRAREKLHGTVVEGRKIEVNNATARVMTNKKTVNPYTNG

B1: GCUGGAU (DNA:RNA)
RNA: GGGAGACCGGAAUUCAGAUUGUCCGCUGGAUUUAAAUCCCGUCGUAGCCACCA
DNA 1: CAATCTGAATTCCGGTCTCCC
DNA 2: TGGTGGCTACGACGGGATT
B2: CGGGGGC (DNA:RNA)
RNA: B1 RNA with G25C, C26G, U27G, A30G, U31C
DNA 1: CAATCTGAATTCCGGTCTCCC
DNA 2: TGGTGGCTACGACGGGATT
B3: UAGUCUG (DNA:RNA)
RNA: GGGAGACCGGAAUUCAGAUUGUCCUAGUCUGUUAAAUCCCGUCGUAGCCACCA
DNA 1: CAATCTGAATTCCGGTCTCCC
DNA 2: TGGTGGCTACGACGGGATT
B4: CGGGUGA (DNA:RNA)
RNA: B1 RNA with G25C, C26G, U27G, G29U, A30G, U31A
DNA 1: CAATCTGAATTCCGGTCTCCC
DNA 2: TGGTGGCTACGACGGGATT
B5: CCACUUA (DNA:RNA)
RNA: B1 RNA with G25C, U27A, G28C, G29U, A30U, U31A
DNA 1: CAATCTGAATTCCGGTCTCCC
DNA 2: TGGTGGCTACGACGGGATT
B6: AGUGCAU (DNA:RNA)
RNA: B1 RNA with G25A, C26G, G29C
DNA 1: CAATCTGAATTCCGGTCTCCC
DNA 2: TGGTGGCTACGACGGGATT
B7: GGAGAGC (DNA:RNA)
RNA: B1 RNA with C26G, U27A, G29A, A30G, U31C
DNA 1: CAATCTGAATTCCGGTCTCCC
DNA 2: TGGTGGCTACGACGGGATT
B8: GCGACCA (DNA:RNA)
RNA: B1 RNA with U27G, G28A, G29C, A30C, U31A
DNA 1: CAATCTGAATTCCGGTCTCCC
DNA 2: TGGTGGCTACGACGGGATT
B9: CUUGCAU (DNA:RNA)
RNA: B1 RNA with G25C, C26U, G29C
DNA 1: CAATCTGAATTCCGGTCTCCC
DNA 2: TGGTGGCTACGACGGGATT
B10: ACUGCUG (DNA:RNA)
RNA: B1 RNA with G25A, G29C, A30U, U31G
DNA 1: CAATCTGAATTCCGGTCTCCC
DNA 2: TGGTGGCTACGACGGGATT
B11: GAUAAGA (DNA:RNA)
RNA: B1 RNA with C26A, G28A, G29A, A30G, U31A
DNA 1: CAATCTGAATTCCGGTCTCCC
DNA 2: TGGTGGCTACGACGGGATT
B12: AAUCACA (DNA:RNA)
RNA: B1 RNA with G25A, C26A, G28C, G29A, A30C, U31A
DNA 1: CAATCTGAATTCCGGTCTCCC
DNA 2: TGGTGGCTACGACGGGATT
B13: AGGAGCG (DNA:RNA)
RNA: B3 RNA with U25A, A26G, U28A, C29G, U30C
DNA 1: CAATCTGAATTCCGGTCTCCC
DNA 2: TGGTGGCTACGACGGGATT
B14: AAGUUUU (DNA:RNA)
RNA: B3 RNA with U25A, C29U, G31U
DNA 1: CAATCTGAATTCCGGTCTCCC
DNA 2: TGGTGGCTACGACGGGATT
B15: GUUCGAC (DNA:RNA)
RNA: B1 RNA with C26U, G28C, U31C
DNA 1: CAATCTGAATTCCGGTCTCCC
DNA 2: TGGTGGCTACGACGGGATT
B16: UGGCGUU (DNA:RNA)
RNA: B3 RNA with A26G, U28C, C29G, G31U
DNA 1: CAATCTGAATTCCGGTCTCCC
DNA 2: TGGTGGCTACGACGGGATT
B17: UCGGUAG (DNA:RNA)
RNA: B1 RNA with G25U, U27G, G29U, U31G
DNA 1: CAATCTGAATTCCGGTCTCCC
DNA 2: TGGTGGCTACGACGGGATT
B18: GGGGGGA (DNA:RNA)
RNA: B1 RNA with C26G, U27G, A30G, U31A
DNA 1: CAATCTGAATTCCGGTCTCCC
DNA 2: TGGTGGCTACGACGGGATT
B19: UAUUACC (DNA:RNA)
RNA: B3 RNA with G27U, C29A, U30C, G31C
DNA 1: CAATCTGAATTCCGGTCTCCC
DNA 2: TGGTGGCTACGACGGGATT
B20: AAAACAA (DNA:RNA)
RNA: B3 RNA with U25A, G27A, U28A, U30A, G31A
DNA 1: CAATCTGAATTCCGGTCTCCC
DNA 2: TGGTGGCTACGACGGGATT
B21: CGGGCUG (DNA:RNA)
RNA: B3 RNA with U25C, A26G, U28G
DNA 1: CAATCTGAATTCCGGTCTCCC
DNA 2: TGGTGGCTACGACGGGATT
B22: AUUCCGC (DNA:RNA)
RNA: B1 RNA with G25A, C26U, G28C, G29C, A30G, U31C
DNA 1: CAATCTGAATTCCGGTCTCCC
DNA 2: TGGTGGCTACGACGGGATT
B23: UUAGGUC (DNA:RNA)
RNA: B1 RNA with G25U, C26U, U27A, A30U, U31C
DNA 1: CAATCTGAATTCCGGTCTCCC
DNA 2: TGGTGGCTACGACGGGATT
B24: UGACCUG (DNA:RNA)
RNA: B3 RNA with A26G, G27A, U28C
DNA 1: CAATCTGAATTCCGGTCTCCC
DNA 2: TGGTGGCTACGACGGGATT
B25: CCAUUCU (DNA:RNA)
RNA: B1 RNA with G25C, U27A, G28U, G29U, A30C
DNA 1: CAATCTGAATTCCGGTCTCCC
DNA 2: TGGTGGCTACGACGGGATT
B26: GGUUUAC (DNA:RNA)
RNA: B1 RNA with C26G, G28U, G29U, U31C
DNA 1: CAATCTGAATTCCGGTCTCCC
DNA 2: TGGTGGCTACGACGGGATT
B27: AAGAUUU (DNA:RNA)
RNA: B3 RNA with U25A, U28A, C29U, G31U
DNA 1: CAATCTGAATTCCGGTCTCCC
DNA 2: TGGTGGCTACGACGGGATT
B28: CAUUUCU (DNA:RNA)
RNA: B1 RNA with G25C, C26A, G28U, G29U, A30C
DNA 1: CAATCTGAATTCCGGTCTCCC
DNA 2: TGGTGGCTACGACGGGATT
B29: CAUCGGA (DNA:RNA)
RNA: B1 RNA with G25C, C26A, G28C, A30G, U31A
DNA 1: CAATCTGAATTCCGGTCTCCC
DNA 2: TGGTGGCTACGACGGGATT
B30: UCCGCUG (DNA:RNA)
RNA: B3 RNA with A26C, G27C, U28G
DNA 1: CAATCTGAATTCCGGTCTCCC
DNA 2: TGGTGGCTACGACGGGATT
B31: CCCGUAG (DNA:RNA)
RNA: B1 RNA with G25C, U27C, G29U, U31G
DNA 1: CAATCTGAATTCCGGTCTCCC
DNA 2: TGGTGGCTACGACGGGATT

Biological target: T1, RBFOX1 RRM
Test: EMSA; HiTS-Eq, 1 nM pool, 10 min; buffer printed only for the single-RNA assays: 10 mM Tris pH 7.5, 150 mM NaCl, 3.4 mM EDTA, 0.001% NP-40, 30 C
Details: tags: His6 N-terminal (pET28a); label: 5' 32P
How it was run: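 Purified RbFox RRM, wild type or mutant, was incubated for 10 min in 50 µL with 1 nM of a 5′-radiolabelled RNA pool carrying 7 randomized nucleotides, whose flanks were annealed to DNA oligonucleotides, over a series of increasing protein concentrations. Unbound RNA was resolved on 8% native PAGE, cut out, reverse-transcribed, barcoded by PCR and sequenced on an Illumina HiSeq 2500. Relative association constants were derived from changes in read counts for each RNA species versus the control reaction and normalised to the cognate motif.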

| Binder | binding signal |
| --- | --- |
| B1 | 0.0131 KA relative to UGCAUGU |
| B2 | 0.0168 KA relative to UGCAUGU |
| B3 | 0.0213 KA relative to UGCAUGU |
| B4 | 0.0241 KA relative to UGCAUGU |
| B5 | 0.00338 KA relative to UGCAUGU |
| B6 | 0.0168 KA relative to UGCAUGU |
| B7 | 0.0169 KA relative to UGCAUGU |
| B8 | 0.00785 KA relative to UGCAUGU |
| B9 | 0.0144 KA relative to UGCAUGU |
| B10 | 0.0149 KA relative to UGCAUGU |
| B11 | 0.0105 KA relative to UGCAUGU |
| B12 | 0.000184 KA relative to UGCAUGU |
| B13 | 0.0162 KA relative to UGCAUGU |
| B14 | 0.0052 KA relative to UGCAUGU |
| B15 | 0.0154 KA relative to UGCAUGU |
| B16 | 0.0221 KA relative to UGCAUGU |

| Binder | binding signal |
| --- | --- |
| B17 | 0.0155 KA relative to UGCAUGU |
| B18 | 0.0226 KA relative to UGCAUGU |
| B19 | 0.00418 KA relative to UGCAUGU |
| B20 | 0.000116 KA relative to UGCAUGU |
| B21 | 0.0324 KA relative to UGCAUGU |
| B22 | 0.00359 KA relative to UGCAUGU |
| B23 | 0.0171 KA relative to UGCAUGU |
| B24 | 0.0199 KA relative to UGCAUGU |
| B25 | 0.000278 KA relative to UGCAUGU |
| B26 | 0.0136 KA relative to UGCAUGU |
| B27 | 0.00694 KA relative to UGCAUGU |
| B28 | 0.00409 KA relative to UGCAUGU |
| B29 | 0.00578 KA relative to UGCAUGU |
| B30 | 0.017 KA relative to UGCAUGU |
| B31 | 0.0113 KA relative to UGCAUGU |
